The campaign covered roughly 48,000 compounds. About 120 (0.25%) were called active. Not shown: some 4% with an inconclusive outcome. Calls follow the shape of the dose curve; as a rule, active = well fitted activation curve with a large enough effect; inconclusive = small, poorly fitted or top-dose-only effect, or another doubt; inactive = no such curve, though single readings can be large or run the other way. The list shows a part of the results.
Test: Primary qHTS for Identification of Small Molecule Activators of Huntingtin-Antisense Promoter Activity; also: nearly all actives have a fitted effect of over 55% in size
Conditions: HEK293 HTT-AS promoter firefly luciferase reporter (activity 0% = vehicle and -100% = no light), 24 h; series mostly up to 57.5 µM; activity change, positive = activation: at the top concentration
How it was run: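 Firefly luciferase readout (Dual-Glo, 10 min RT) after 24 h, 37 °C compound exposure (final up to 57.5 uM) of HEK293 reporter cells cultured 24 h beforehand; PTC124 at 50 uM final as control inhibitor; activity scaled vehicle 0%, zero RLU -100%.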

Activity change, positive = activation, inactive:
O=C(Cn1c(=O)ccc2cc(S(=O)(=O)N3CCCC3)ccc21)NCc1ccc(F)cc1 -15.7%, CCOc1cc(C2c3c(oc4ccccc4c3=O)C(=O)N2Cc2ccccc2Cl)ccc1O (stereo not drawn) -17.6%, Cc1sc(NC(=O)COc2ccc(C(C)(C)C)cc2)c(C(=O)OC(C)C)c1C -15.3%, CCc1ccc(N2C(=O)CS(=O)(=O)C23C(=O)N(Cc2ccccc2F)c2ccccc23)cc1 (stereo not drawn) -22.5%, CCn1cc(C(=O)N2CCN(c3ccccc3)CC2)c(=O)c2cc(S(=O)(=O)N3CCC(C)CC3)ccc21 -8.95%, COc1ccc(C2CC(=O)c3c([nH]c(C(=O)OCCOc4ccccc4)c3C)C2)cc1OC (stereo not drawn) -37.3%, CCOc1ccc(NC(=O)c2cn3c4c(ccc(Cl)c4c2=O)OC(C)C3)cc1 (stereo not drawn) -12.7%, Cc1onc(-c2c(Cl)cccc2Cl)c1C(=O)N[C@@H]1C(=O)N2[C@@H]1SC(C)(C)[C@@H]2C(=O)O -11.7%, COc1cccc(CNC(=O)c2cccn2-c2nnc(N3CCCC3)s2)c1 -4.45%, CCN1CCN(C(=O)c2cnn(-c3cccc(C)c3)c2C2CCN(C(=O)OC(C)(C)C)CC2)CC1 8.18%, Cc1cc(NC(=O)Nc2ccc(N(C)C)cc2)c2cc(F)cc(F)c2n1 -1.49%, Cc1ccc(-c2noc(C3CC(=O)N(c4ccc5c(c4)OCCO5)C3)n2)cc1 (stereo not drawn) -8.49%, COc1ccc(CNC(=O)C2CCN(S(=O)(=O)c3cn(C)cn3)CC2)cc1 -3.67%, COc1ccc(NC(=O)N(Cc2ccco2)C2CCN(C(C)=O)CC2)c(OC)c1 -17.7%, Cc1cc(NC(=O)CN2C(=O)CSc3ccc(S(=O)(=O)N(C)C)cc32)ccc1Br -8.87%, CCOC(=O)c1c(NC(=O)c2nc(SC)ncc2Cl)sc(C)c1C 1.98%, CSc1ccc(CCNC(=O)c2ccc3c(c2)nc2n3CCOC2)cc1 3.13%, CC1(C)Oc2ccc(C#N)cc2[C@@H](N2CCCC2=O)[C@@H]1O -3.18%, Cc1ccc(-n2c(SCC(=O)N3CCC(C)CC3)nc3c([nH]c4ccccc43)c2=O)cc1 25.4%, CC(C)c1nnc(NC(=O)c2nc(S(=O)(=O)Cc3ccccc3)ncc2Cl)s1 -94.3%, COc1ccc(Cl)cc1NC(=O)CSc1cn(CC(=O)N2CCCC2)c2ccccc12 -38.1%, Cn1c(=O)n(CCCc2ccccc2)c(=O)c2c1nc1n2CCN1c1ccccc1 -12.3%, CCOC(=O)c1scc(-c2ccc(C)cc2)c1S(=O)(=O)Nc1ccc(F)c(F)c1 -13.7%, COc1ccc2c(c1)c(=O)c(C(=O)c1ccc(Cl)cc1)cn2CC(=O)Nc1ccc2c(c1)OCO2 -7.83%, CCN(Cc1ccccc1)C(=O)CCS(=O)(=O)c1ccc2c(c1)oc(=O)n2C -9.95%, Cc1c(Cl)cccc1NC(=O)NCCOCCn1c(=O)oc2ccccc21 -21.9%, CCOC(=O)N1CCc2c(sc(NCc3sccc3C)c2C(=O)Nc2ccccc2OCC)C1 -8.69%, CCOC(=O)c1ccc(NC(=O)CN2C(=O)CC(c3ccc(C)c(C)c3)=Nc3ccccc32)cc1 25.9%, CCOc1ccc(CCNC(=O)c2ccc3c(c2)N(Cc2cccc(Cl)c2)C(=O)c2ccccc2S3(=O)=O)cc1OCC -10.5%, Cc1ccccc1Oc1nc2c(c(=O)n(C)c(=O)n2C)n1Cc1ccc(Br)cc1 -13.9%, Cc1ccc(C)c(CSc2nc3ccncc3n2Cc2nc(-c3ccccc3Cl)oc2C)c1 -39.9%, CC(NC(=O)CSc1n[nH]c(-c2ccccc2)n1)c1nc2ccccc2n1C (stereo not drawn) -13.3%, COc1cc(OC)c(NC(=O)c2cc(S(=O)(=O)N3CCCC3)cn2C)cc1Cl -18.3%, Cc1ccc(S(=O)Cc2nc(-c3ccc(C(=O)NC(C)c4ccccc4)cc3)oc2C)cc1 (stereo not drawn) -9.75%, CCCCc1ccc(Nc2ncnc3c2cnn3-c2ccc(C)cc2)cc1 -9.54%, CCC1CCCCN1C(=O)Cn1c(=O)n(CC2CCC(C(=O)NC)CC2)c(=O)c2sccc21 (stereo not drawn) -4.78%, O=C(Nc1ccc(OC(F)(F)F)cc1)NC1COc2ccccc2C1 (stereo not drawn) -11.4%, Cc1ccc2c(c1)nc(SCC(O)c1ccc(Br)cc1)n2C (stereo not drawn) -16%, COC(=O)c1ccc(C(=O)OC)c(NC(=O)c2c(-c3ccccc3)c(-c3ccccc3)nn(C)c2=O)c1 -33.7%, COc1ccc(N2CCN(Cc3nc4c(c(=O)[nH]c(=O)n4C)n3Cc3ccccc3)CC2)cc1 -15.1%, Cn1c(=O)c2sccc2n2c(CCC(=O)NCc3ccccc3)nnc12 -1.81%, Cc1cccc(C)c1NC(=O)CN(C)S(=O)(=O)c1ccc2c(c1)n(C)c(=O)c(=O)n2C -0.324%, CCSc1nc(=O)c2c(n1C)NC(=O)CC2c1ccc(O)cc1OC (stereo not drawn) -7.28%, CCc1ccc(OCC(=O)NCC(c2ccc(OC)cc2)N2CCOCC2)cc1 (stereo not drawn) -18.1%, COc1ccc(-n2c(=O)c3sc4ccccc4c3n(Cc3ccccc3)c2=O)cc1 -6.62%, Cc1cccc(C(=O)N(Cc2nc(-c3ccc(Cl)cc3)no2)C(C)C)c1 -12.1%, CC(=O)c1cccc(NC(=O)Cn2c(C)c3cnn(-c4ccccc4)c(=O)c3c2C)c1 -25.7%, CCN(CC)CCNC(=O)c1ccc2c(c1)N(Cc1ccccc1)C(=O)c1ccccc1S2=O (stereo not drawn) -18%, Cc1ccc2c(CNC3CCC(C)CC3)c(C(=O)O)n(Cc3cccc(F)c3)c2c1 (stereo not drawn) -14.2%, CC1CCN(c2nc3ccc(C(=O)NCc4ccc(Cl)cc4)cc3s2)CC1 -78.7%, COc1cc(NC(=O)c2cc3nc(-c4ccccc4)cc(-c4ccccc4)n3n2)c(OC)cc1Cl 1.53%, COc1ccc(C2CC(=O)N(CC(=O)Nc3ccc(C(F)(F)F)cc3)c3ccccc3S2)cc1 (stereo not drawn) -24.2%, COc1ccc(C(=O)Nc2ccc3nc(SCC(=O)N4CCOCC4)sc3c2)cc1 -7.39%, COC(=O)c1ccc(OC)c(Cn2c(=O)n(-c3ccc(C)cc3)c(=O)c3c2cnn3C)c1 -40.3%, CCc1nn(CC(=O)NC2CC2)c(=O)c2cc3ccccc3n12 13.5%, COc1cccc(CNC(=O)c2c3c(nc4ccccc24)C(=O)N(C2CCCCC2)C3)c1 -15.8%, Cn1cc(C(=O)NCc2ccccc2)c(=O)c2cc(S(=O)(=O)N3CCCCCC3)ccc21 -14.3%, CCc1ccc(CNC(=O)Cc2c(C(=O)O)c(C)cn2C)cc1 -8.19%, CCc1nnc(SCc2nc(-c3ccccc3)oc2C)c2cc3sccc3n12 -12.2%, Cc1ccc(C)c(NC(=O)Cn2c(=O)n(Cc3cccs3)c(=O)c3cccnc32)c1 -23.5%, CC(C)(C)OC(=O)N1CCC(c2c(C(=O)N3CCN(c4ncccn4)CC3)cnn2-c2ccc(F)cc2F)CC1 -13.2%, COc1ccc(-c2cn3nc(N4CCC(C(=O)Nc5cc(Cl)ccc5OC)CC4)sc3n2)cc1 20.4%, COc1ccc(OC)c(NC(=O)C(CCSC)NS(=O)(=O)c2cccs2)c1 (stereo not drawn) -3.4%, COc1ccc(-c2nc(SCC(=O)N3CCC(C)CC3)n[nH]2)cc1 -15.9%, C[N+](C)(C)CCCCCC[N+](C)(C)C -4.57%, Cc1ccc(Cl)cc1NC(=O)/C(C#N)=C\c1cn(Cc2ccc(F)cc2)c2ccccc12 -27.4%, COc1ccc(C(=O)Nc2ccc(C(=O)OCc3cc(=O)n4nc(C(C)C)sc4n3)cc2)cc1 38.5%, Cc1ccccc1C(=O)Nc1ccc2nc(SCCOc3ccccc3)sc2c1 -20.7%, CCOC(=O)c1c(S(=O)(=O)NCC(=O)NCc2ccc(C)cc2)c(C)n(C)c1C -6.42%, Fc1ccc(CNc2cc(-c3ccccc3)nc3nncn23)cc1 -29.3%, CC1C(=O)OC2C(O)C34C5CC(C(C)(C)C)C36C(OC(=O)C6O)OC4(C(=O)O5)C12O (stereo not drawn) -5.44%, COc1cccc(CCNc2ncnc3c2nnn3C)c1 -7.96%, O=C(NCc1ccc(F)cc1)c1cc2c(s1)-c1ccccc1SC2 8.39%, O=C(CCCn1c(=O)c2ccccc2n(CC(=O)Nc2ccc(F)cc2F)c1=O)NCc1ccccc1Cl -33.9%, COc1cc2c(=O)n(CCC(=O)NCC3CCCO3)c(=O)n(CC(=O)Nc3c(C)cccc3C)c2cc1OC (stereo not drawn) -4.24%, CCCCOC(=O)c1ccc(NC(=O)/C(C#N)=C/c2ccc(-c3ccccc3)o2)cc1 -6.46%, CC(=O)c1ccc(NC(=O)CSc2ccc3nc(-c4ccccc4)cn3n2)cc1 -61%, Cc1ccc(-c2cc(C(=O)N3CCN(S(=O)(=O)c4ccc(Br)s4)CC3)[nH]n2)c(C)c1 -21.8%, CCOc1ccc(CCNC(=O)C2Cc3ccccc3N2C(=O)CC)cc1OCC (stereo not drawn) -4.98%, Cc1ccc(N(CC(=O)Nc2ccc(Br)c(C)c2)S(=O)(=O)c2cccs2)cc1 -18.5%, CN(C)c1ccc(CNC(=O)C(Cc2ccccc2)NS(=O)(=O)c2ccc3c(c2)oc(=O)n3C)cc1 (stereo not drawn) 13.5%, N#Cc1ccccc1NC(=O)C(=O)NCC(c1cccnc1)N1CCN(c2ccccc2)CC1 (stereo not drawn) -15.5%, CCOc1ccc(C(=O)Nc2ccc3nc(SCC(=O)N4CCOCC4)sc3c2)cc1 -23.1%, Cc1ccc(OCC(=O)Nc2ccc(-c3nc4ccc(C)cc4o3)cc2)cc1 30.1%, CCN1CCN(C(=O)c2ccc3c(c2)N(Cc2cc(C)ccc2C)C(=O)c2ccccc2S3(=O)=O)CC1 -14.5%, CCOc1ccccc1Nc1ccc2cc(S(=O)(=O)N3CCCCC3)ccc2n1 -32.9%, CCOC(=O)c1c(C)oc2nc(C)nc(NCCc3ccc(S(N)(=O)=O)cc3)c12 -27.5%, O=C(NCCc1ccccc1)c1cnc2sc(N3CCOCC3)nn2c1=O -1.2%, CCCSCCCNC(=O)CN1C(=O)COc2ccc(S(=O)(=O)N3CCCCCC3)cc21 -30.6%, Cc1cc(NC(=O)CN(c2cccc(C)c2C)S(=O)(=O)c2ccccc2)ccc1Br -38.8%, CCCOc1ccc(CNC(=O)C2CCN(c3nn4c(=O)cc(C)nc4s3)CC2)cc1 -11.2%, COc1ccc(CCC(=O)NCc2ccc3c(c2)CCN3C(=O)c2cccc(C)c2)cc1 -69.7%, CC(NC(=O)c1cc2sccc2n1Cc1ccc(F)cc1)c1ccccc1 (stereo not drawn) -20.6%

Source: PubChem BioAssay AID1508624 (National Center for Advancing Translational Sciences (NCATS), 2021)
